Source: PubChem BioAssay AID624417 (National Center for Advancing Translational Sciences (NCATS), 2012)
The campaign covered roughly 410,000 compounds. About 6,400 (1.6%) were called active. The inconclusive results got no clear call from the source; some entries with a clear call stand among them for comparison. Calls follow the shape of the dose curve; as a rule, active = well fitted inhibition curve with a large enough effect; inconclusive = small, poorly fitted or top-dose-only effect; inactive = no such curve, though single readings can be large or run the other way. Potencies of inconclusive entries are left out as doubtful fits.

Biological target: Glucagon-like peptide 1 receptor (Homo sapiens) (UniProt P43220)
Sequence of UniProt P43220 (P43220 whole entry, looked up): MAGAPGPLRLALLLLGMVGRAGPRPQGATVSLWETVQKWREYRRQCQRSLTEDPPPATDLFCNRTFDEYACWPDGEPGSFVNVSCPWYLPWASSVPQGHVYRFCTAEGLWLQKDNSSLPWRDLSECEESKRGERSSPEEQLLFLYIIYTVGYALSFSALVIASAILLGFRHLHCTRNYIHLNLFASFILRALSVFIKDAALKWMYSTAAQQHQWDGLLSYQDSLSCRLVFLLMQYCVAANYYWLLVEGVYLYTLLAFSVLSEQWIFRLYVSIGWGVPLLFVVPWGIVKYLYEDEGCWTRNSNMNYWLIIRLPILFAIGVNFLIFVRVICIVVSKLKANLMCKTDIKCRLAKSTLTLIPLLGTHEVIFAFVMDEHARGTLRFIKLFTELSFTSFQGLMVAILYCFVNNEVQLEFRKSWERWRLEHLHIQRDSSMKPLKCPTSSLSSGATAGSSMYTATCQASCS
Experiment: qHTS of GLP-1 Receptor Inverse Agonists (Inhibition Mode); also: nearly all actives have a fitted effect of over 55% in size
Conditions: HEK293 GLP-1R CRE-luciferase, luminescence, 24 h, GLP-1R form is constitutively active; activity change, negative = inhibition: at 38.3 µM (top of the series) unless noted
In short: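 HEK293 cells stably co-expressing constitutively active GLP-1R and a cAMP-responsive luciferase reporter were seeded in DMEM with 10% Nu serum, given compounds after 12 h, and incubated 24 h at 37 deg C. Luminescence was then read.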
% is scaled to controls: 0 for no effect and ±100 for the full control effect; potency is read from the fitted curve at half-maximal effect; tags tell the direction and shape of the fitted curve.

| SMILES | Potency | activity change, negative = inhibition |
| --- | --- | --- |
| Cc1ccc(CNC(=O)c2cc(COc3c(F)cccc3F)on2)s1 | inconclusive [inhibitor, partial curve, poor fit] |  |
| CCN1CCCC1CNC(=O)CSc1cc(=O)n(C)c2cc(Cl)ccc12 (centres undefined) | inconclusive [inhibitor, single point] |  |
| CC(OC(=O)C1=COCCO1)C(=O)c1ccc(C(C)(C)C)cc1 (centres undefined) | inconclusive [inhibitor, single point] |  |
| CCCCN1C(=S)NC[C@@H]1Cc1cccc2ccccc12 | inconclusive [inhibitor, partial curve] |  |
| CN1/C(=C\C=N\NC(=O)c2ccc(O)cc2)C(C)(C)c2ccccc21 | inconclusive [inhibitor, single point] |  |
| CC(/C=C/C(=O)c1ccc(C)cc1)=C\c1ccccc1 | inactive |  |
| O=C(Nc1cccc(Cl)c1)Nc1ccccc1C(=O)NCc1ccco1 | inconclusive [inhibitor, single point] |  |
| Nc1ccc(C(=O)CC(=O)Nc2ccc(Cl)cc2)cc1 | inconclusive [inhibitor, partial curve, poor fit] |  |
| COc1ccc(CCN2C(=O)c3oc4cc(C)cc(C)c4c(=O)c3C2c2ccc(F)cc2)cc1OC (centres undefined) | inactive |  |
| N#C/C(N=Nc1ccccc1O)=N\Nc1ccccc1O | inconclusive [inhibitor, partial curve, poor fit] |  |
| COc1ccccc1N1CCN(C(=O)c2ccc(CS(=O)c3ccccc3C)o2)CC1 (centres undefined) | inconclusive [inhibitor, partial curve, poor fit] |  |
| COc1ccc(Cn2c(C)nc([N+](=O)[O-])c2SCC(=O)O)cc1[N+](=O)[O-] |  | inactive: 1.94% [at 7.66 µM] |
| CCCCOC(=O)Cn1c(=O)c2c(nc(Br)n2Cc2ccccc2)n(C)c1=O | inconclusive [inhibitor, partial curve, poor fit] |  |
| COc1ccc(NS(=O)(=O)c2cccc(NC(=O)c3cnccn3)c2)cc1Br | inconclusive [inhibitor, partial curve, poor fit] |  |
| COc1cc(C(=O)Nc2nc(-c3cccs3)cs2)cc(OC)c1OC | inconclusive [inhibitor, partial curve, poor fit] |  |
| C[C@H](CO)N1C[C@H](C)[C@H](CN(C)C)Oc2ccc(NS(=O)(=O)c3ccc(F)cc3)cc2CC1=O | inactive |  |
| CCOC(=O)CSC1=C(C#N)C(c2ccc3c(c2)OCO3)CC(=O)N1 (centres undefined) | inconclusive [inhibitor, single point] |  |
| Cc1ccc(SCC(=O)NCCc2ccc(F)cc2)cc1 | inconclusive [inhibitor, partial curve, poor fit] |  |
| O=C(NNc1ncccc1Cl)c1c(Cl)cccc1Cl | inactive |  |
| O=C(NC1CC1)c1ccc(Cn2c(SCc3cccc(F)c3)nc3cccnc32)cc1 | inactive |  |
| Cc1nc2c(-c3ccc(Cl)cc3)c(C)[nH]n2c(=O)c1Cc1ccccc1 | inconclusive [inhibitor, partial curve, poor fit] |  |
| CCOC(=O)c1ccccc1NC(=O)CSc1nnc(COc2ccccc2C)n1C | inconclusive [inhibitor, single point] |  |

| SMILES | Potency | activity change, negative = inhibition |
| --- | --- | --- |
| COc1ccccc1N(Cc1ccccc1)S(=O)(=O)c1cccc(C(=O)Nc2ncccc2C)c1 | inconclusive [inhibitor, single point] |  |
| CC1(C)CC(=Cc2cc(O)ccc2[N+](=O)[O-])C(=O)c2ccccc21 | inconclusive [inhibitor, single point] |  |
| O=C(NCc1ccccc1F)c1cccc(S(=O)(=O)NCc2ccccc2)c1 | inconclusive [inhibitor, partial curve, poor fit] |  |
| Cc1ccc(NC(=O)c2cc(C(C)(C)C)nn2Cc2ccccc2)cc1 | active: 3.98 µM |  |
| Cc1ccc(S(=O)(=O)c2nc(-c3ccccc3F)oc2N2CCCCC2)cc1 | inconclusive [inhibitor, single point] |  |
| O=C(COC(=O)c1ccc(S(=O)(=O)NCc2ccco2)cc1)NC1CCCCCC1 | inconclusive [inhibitor, single point] |  |
| CC(C)NC(=O)c1ccc(CN2CCC(Cc3ccccc3)CC2)cc1 | inactive |  |
| CC(=O)c1ccc(S(=O)(=O)Nc2cccc(-c3ccc(N4CCOCC4)nn3)c2)cc1 | inactive |  |
| COc1ccc(-c2csc(C(O)c3ccc(OC)cc3)n2)cc1 (centres undefined) | inconclusive [inhibitor, partial curve, poor fit] |  |
| Cc1ccc(Nc2nc(N)nc(CN3CCN(c4ccccc4F)CC3)n2)cc1 | inconclusive [inhibitor, single point] |  |
| Clc1ccc(Cn2ncc3c(N4CCCCC4)ncnc32)cc1 | inconclusive [inhibitor, partial curve, poor fit] |  |
| CCc1c(C)sc2c1CCN(Cc1cccc(F)c1)C2c1ccccc1 (centres undefined) | inconclusive [inhibitor, partial curve, poor fit] |  |
| O=C(NCc1cccc(Cl)c1)c1cc2c(s1)-c1ccccc1OC2 | inconclusive [inhibitor, single point] |  |
| COc1ccc(Cl)cc1Nc1sc(C(=O)c2ccccc2)c(N)c1C(=O)Nc1ccccc1 | inconclusive [inhibitor, single point] |  |
| CC1CN(CN2C(=O)c3ccccc3C2=O)CC(C)O1 (centres undefined) | inactive |  |
| OC(CNC1CCCC1)COc1ccccc1Br (centres undefined) | inconclusive [inhibitor, single point] |  |
| CC(C)CC(=O)Nc1ccccc1N1CCN(c2ccc(F)cc2)CC1 | inconclusive [inhibitor, partial curve, poor fit] |  |
| S=C(N/N=C/c1cccc2ccccc12)Nc1cccc(Cl)c1 | inconclusive [inhibitor, single point] |  |
| CC(C)Cn1c(N)c(C(=O)COC(=O)C2CC(=O)N(Cc3ccccc3Cl)C2)c(=O)n(C)c1=O (centres undefined) | inconclusive [inhibitor, partial curve, poor fit] |  |
| Cc1ccccc1NC(=O)c1ccc(CN2CCC(Cc3ccccc3)CC2)cc1 | inconclusive [inhibitor, partial curve, poor fit] |  |
| Cc1cc(C)nc(Nc2n[nH]c(-c3ccccc3N)n2)n1 | inconclusive [inhibitor, single point] |  |
| Cc1cc(=O)[nH]c2nnc(SCC(=O)NC(C)(C)C)n12 | inactive |  |

| SMILES | Potency | activity change, negative = inhibition |
| --- | --- | --- |
| CC(C)(C)c1nc(N2CCN(C(=O)c3ccco3)CC2)c2nnn(Cc3ccccc3)c2n1 | inconclusive [inhibitor, full curve, poor fit] |  |
| CSc1ccccc1OCc1cc(C(=O)N2CCc3c(Cl)cccc3C2)no1 | inconclusive [inhibitor, partial curve, poor fit] |  |
| Cn1cnnc1SCc1ccc(C(=O)N=Nc2c(O)n(Cc3ccc(Cl)cc3)c3ccccc23)cc1 | inconclusive [inhibitor, single point] |  |
| O=C(CN1C(=O)COc2ccc(S(=O)(=O)N3CCCCCC3)cc21)NCc1ccc(Cl)cc1 | inconclusive [inhibitor, single point] |  |
| O=C(Cn1cnc2c(cnn2-c2ccccc2)c1=O)Nc1cc(S(=O)(=O)N2CCOCC2)ccc1Cl | inconclusive [inhibitor, partial curve, poor fit] |  |
| CC(=O)Nc1cc(C(=O)N2CCc3ccccc3C2)ccc1Sc1ccc(F)cc1 | inconclusive [inhibitor, single point] |  |
| O=C(NCCCN1CCN(c2ccccc2F)CC1)Nc1ccc(F)cc1 | inconclusive [inhibitor, partial curve, poor fit] |  |
| Cn1c(Cc2csc(N)n2)nnc1SCC(=O)NC1CCCCC1 | inactive |  |
| Cc1onc(-c2ccccc2)c1C(=O)Nc1ccnn1C1CCCCC1 | inconclusive [inhibitor, single point] |  |
| CCOc1ccc(-c2cc(C(=O)NCCCN3CCOCC3)c3ccccc3n2)cc1 | inconclusive [inhibitor, single point] |  |
| CN(Cc1ccc(F)cc1)C(=O)c1sccc1-c1ccccc1 | inconclusive [inhibitor, single point] |  |
| CCSc1nsc(NC(=O)Nc2ccc(F)cc2F)n1 | inconclusive [inhibitor, partial curve] |  |
| O=C(CN1C(=O)NC2(CCCCCC2)C1=O)c1ccc(F)cc1 | inactive |  |
| CC(C)c1ccc(NC(=O)c2cc3c(s2)-c2ccccc2SC3)cc1 | inconclusive [inhibitor, partial curve] |  |
| Cc1ccc(CCNC(=O)c2ccc3c(c2)N(Cc2cccc(C)c2)C(=O)c2ccccc2S3(=O)=O)cc1 | inconclusive [inhibitor, full curve, poor fit] |  |
| N#CC1=C(N)Oc2cc(O)ccc2C1c1ccccc1 (centres undefined) | inconclusive [inhibitor, full curve] |  |
| O=C(Nc1nc(-c2ccc(F)cc2)cs1)c1cnccn1 | inactive |  |
| Brc1ccc2nc(C3CCCCC3)c(CC3CCCCC3)n2c1 | inconclusive [inhibitor, partial curve] |  |
| COc1ccc2nc(NC(=S)NC(=O)c3ccco3)sc2c1 | inconclusive [inhibitor, full curve] |  |
| CC(C)(C)n1nnnc1C(c1cccs1)N(Cc1cccnc1)Cc1ccccc1Cl (centres undefined) | inconclusive [inhibitor, partial curve, poor fit] |  |
